The record followed here is paper PMC8024306.

For experiment [1], the target named is T1, GST-HMRΔ251 (Arabidopsis thaliana) (UniProt F4IHY7).
T1 sequence: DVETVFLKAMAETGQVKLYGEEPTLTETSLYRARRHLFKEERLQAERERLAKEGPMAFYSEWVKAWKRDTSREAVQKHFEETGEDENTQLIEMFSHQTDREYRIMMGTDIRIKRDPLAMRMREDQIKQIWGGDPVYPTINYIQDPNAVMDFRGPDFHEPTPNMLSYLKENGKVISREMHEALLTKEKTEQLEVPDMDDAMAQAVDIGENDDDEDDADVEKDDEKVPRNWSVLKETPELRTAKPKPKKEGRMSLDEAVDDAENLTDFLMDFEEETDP
The experiment can be described thus: pull-down; GST or GST-HMR baits immobilized on glutathione Sepharose beads; in vitro translated HA-RCB preys, 4 °C for 2 h; washed with E buffer (50 mM Tris-HCl pH 7.5, 100 mM NaCl, 0.1% Nonidet P-40); anti-HA immunoblot; only the target purified. In general terms: Immunoblotting shows a protein as a band on a membrane.

In experiment [2] the target is T2, HMR^D516N (HMR22) (Arabidopsis thaliana) (UniProt F4IHY7).
T2 sequence: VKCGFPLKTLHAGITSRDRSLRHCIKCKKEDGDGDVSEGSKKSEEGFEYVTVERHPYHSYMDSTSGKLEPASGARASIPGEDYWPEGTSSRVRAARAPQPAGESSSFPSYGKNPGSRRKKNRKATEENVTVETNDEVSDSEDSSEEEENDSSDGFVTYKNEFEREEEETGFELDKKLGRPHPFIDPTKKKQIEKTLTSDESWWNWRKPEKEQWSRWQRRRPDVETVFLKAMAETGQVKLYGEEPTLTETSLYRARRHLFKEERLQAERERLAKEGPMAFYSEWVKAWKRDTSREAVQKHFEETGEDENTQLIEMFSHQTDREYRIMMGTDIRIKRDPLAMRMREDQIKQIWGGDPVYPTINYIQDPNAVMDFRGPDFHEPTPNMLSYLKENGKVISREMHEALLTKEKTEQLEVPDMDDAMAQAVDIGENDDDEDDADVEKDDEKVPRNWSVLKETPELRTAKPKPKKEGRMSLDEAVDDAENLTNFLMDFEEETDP
The experiment in a line: pull-down; pulldown of HMR22 (D516N) against wild-type HMR with RCB; details only in Supplementary Fig. 2.

Experiment [3] addresses T3, GST-HMRΔ115 (Arabidopsis thaliana) (UniProt F4IHY7).
T3 sequence: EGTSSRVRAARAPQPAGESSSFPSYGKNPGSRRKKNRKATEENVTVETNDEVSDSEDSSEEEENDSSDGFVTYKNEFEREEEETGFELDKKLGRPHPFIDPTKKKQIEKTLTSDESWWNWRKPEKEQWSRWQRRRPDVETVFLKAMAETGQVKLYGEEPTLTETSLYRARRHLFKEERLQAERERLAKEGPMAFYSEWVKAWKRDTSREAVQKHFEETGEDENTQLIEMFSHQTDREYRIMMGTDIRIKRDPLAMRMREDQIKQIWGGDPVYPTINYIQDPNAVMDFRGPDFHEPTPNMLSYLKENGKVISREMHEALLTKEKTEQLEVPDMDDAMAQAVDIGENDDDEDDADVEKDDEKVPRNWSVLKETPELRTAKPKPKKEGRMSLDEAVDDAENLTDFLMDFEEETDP
The experiment in a line: pull-down; GST or GST-HMR baits immobilized on glutathione Sepharose beads; in vitro translated HA-RCB preys, 4 °C for 2 h; washed with E buffer (50 mM Tris-HCl pH 7.5, 100 mM NaCl, 0.1% Nonidet P-40); anti-HA immunoblot; only the target purified.

Experiment [4] concerns the target T4, HMR-HA (HEMERA, HA-tagged, in the transgenic line HMR-HA/hmr-5) (Arabidopsis thaliana) (UniProt F4IHY7).
T4 sequence: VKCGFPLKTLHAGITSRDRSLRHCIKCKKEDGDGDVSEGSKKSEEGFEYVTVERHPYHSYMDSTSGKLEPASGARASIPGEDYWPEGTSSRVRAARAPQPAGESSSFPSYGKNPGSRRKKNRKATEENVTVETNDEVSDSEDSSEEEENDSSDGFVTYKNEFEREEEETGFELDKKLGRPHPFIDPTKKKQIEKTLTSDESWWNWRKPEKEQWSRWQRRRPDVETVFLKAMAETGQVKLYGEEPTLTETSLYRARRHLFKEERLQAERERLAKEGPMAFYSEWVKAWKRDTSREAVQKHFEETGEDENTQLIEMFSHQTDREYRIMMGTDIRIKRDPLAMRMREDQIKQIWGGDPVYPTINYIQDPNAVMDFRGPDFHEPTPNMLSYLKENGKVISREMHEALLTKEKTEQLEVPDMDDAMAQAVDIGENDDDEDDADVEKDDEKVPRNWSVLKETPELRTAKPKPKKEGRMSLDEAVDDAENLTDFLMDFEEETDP
The experiment can be described thus: co-IP; lysate of 4-d-old transgenic seedlings (RCB-HA-His/rcb-10 or HMR-HA/hmr-5) grown in 10 μmol m^-2 s^-1 R light at 21 °C; HA-tagged protein precipitated on anti-HA matrix, 4 h at 4 °C, Co-IP buffer 50 mM Tris-Cl pH 7.5, 100 mM NaCl, 0.1% NP-40; partner detected by immunoblot; Col-0 as negative ….

For experiment [5], the target named is T5, RCB-HA-His (REGULATOR OF CHLOROPLAST BIOGENESIS, HA- and His-tagged, in the transgenic line RCB-HA-His/rcb-10) (Arabidopsis thaliana) (UniProt F4JLC1).
T5 sequence: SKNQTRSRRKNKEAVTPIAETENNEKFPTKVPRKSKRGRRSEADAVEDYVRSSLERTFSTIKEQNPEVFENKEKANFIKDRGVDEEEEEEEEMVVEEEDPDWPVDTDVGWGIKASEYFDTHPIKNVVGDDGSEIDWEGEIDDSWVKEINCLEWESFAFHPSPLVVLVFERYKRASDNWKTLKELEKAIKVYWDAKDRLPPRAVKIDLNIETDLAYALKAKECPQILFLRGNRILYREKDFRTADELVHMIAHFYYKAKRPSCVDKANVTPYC
The experiment is described as above.

These are yes or no findings as the source states them, for the method shown. In cells and extracts the contact can be indirect. Some results given as binding are weak or reduced against the parent protein; the word gives no strength. Where a sequence is shown, tags or fusion partners need not be part of it.

B1: HA-RCBΔ51 (domain or fragment, UniProt F4JLC1 52-331)
chain: SDSVLDPESKNQTRSRRKNKEAVTPIAETENNEKFPTKVPRKSKRGRRSEADAVEDYVRSSLERTFSTIKEQNPEVFENKEKANFIKDRGVDEEEEEEEEMVVEEEDPDWPVDTDVGWGIKASEYFDTHPIKNVVGDDGSEIDWEGEIDDSWVKEINCLEWESFAFHPSPLVVLVFERYKRASDNWKTLKELEKAIKVYWDAKDRLPPRAVKIDLNIETDLAYALKAKECPQILFLRGNRILYREKDFRTADELVHMIAHFYYKAKRPSCVDKANVTPYC
Consider B1, for which the binding entry in experiment [1] is given as “binds”.

B2: HA-RCBΔ89 (domain or fragment, UniProt F4JLC1 90-331)
chain: VPRKSKRGRRSEADAVEDYVRSSLERTFSTIKEQNPEVFENKEKANFIKDRGVDEEEEEEEEMVVEEEDPDWPVDTDVGWGIKASEYFDTHPIKNVVGDDGSEIDWEGEIDDSWVKEINCLEWESFAFHPSPLVVLVFERYKRASDNWKTLKELEKAIKVYWDAKDRLPPRAVKIDLNIETDLAYALKAKECPQILFLRGNRILYREKDFRTADELVHMIAHFYYKAKRPSCVDKANVTPYC
With B2, in experiment [1], the binding entry is given as “binds”.

B3: HA-tagged full-length RCB (HA-RCB) (protein, UniProt F4JLC1 1-331)
chain: MSFFAVACSAPRSSMLLTGLNSSFSDMHRSPLFVFPVTISSRSVKRFAAVSSDSVLDPESKNQTRSRRKNKEAVTPIAETENNEKFPTKVPRKSKRGRRSEADAVEDYVRSSLERTFSTIKEQNPEVFENKEKANFIKDRGVDEEEEEEEEMVVEEEDPDWPVDTDVGWGIKASEYFDTHPIKNVVGDDGSEIDWEGEIDDSWVKEINCLEWESFAFHPSPLVVLVFERYKRASDNWKTLKELEKAIKVYWDAKDRLPPRAVKIDLNIETDLAYALKAKECPQILFLRGNRILYREKDFRTADELVHMIAHFYYKAKRPSCVDKANVTPYC
With B3, the binding result in experiment [2] was “binds”; in experiment [3], “no binding”; in experiment [1], “binds”.

B4: REGULATOR OF CHLOROPLAST BIOGENESIS (RCB), endogenous in HMR-HA/hmr-5 seedlings (protein, UniProt F4JLC1 60-331)
chain: SKNQTRSRRKNKEAVTPIAETENNEKFPTKVPRKSKRGRRSEADAVEDYVRSSLERTFSTIKEQNPEVFENKEKANFIKDRGVDEEEEEEEEMVVEEEDPDWPVDTDVGWGIKASEYFDTHPIKNVVGDDGSEIDWEGEIDDSWVKEINCLEWESFAFHPSPLVVLVFERYKRASDNWKTLKELEKAIKVYWDAKDRLPPRAVKIDLNIETDLAYALKAKECPQILFLRGNRILYREKDFRTADELVHMIAHFYYKAKRPSCVDKANVTPYC
Consider B4, for which the binding result in experiment [4] is given as “binds”.

B5: HA-RCBΔ159 (domain or fragment, UniProt F4JLC1 160-331)
chain: DWPVDTDVGWGIKASEYFDTHPIKNVVGDDGSEIDWEGEIDDSWVKEINCLEWESFAFHPSPLVVLVFERYKRASDNWKTLKELEKAIKVYWDAKDRLPPRAVKIDLNIETDLAYALKAKECPQILFLRGNRILYREKDFRTADELVHMIAHFYYKAKRPSCVDKANVTPYC
Regarding B5, in experiment [1], the binding entry is recorded as “binds”.

B6: HEMERA (HMR), endogenous in RCB-HA-His/rcb-10 seedlings (protein, UniProt F4IHY7 31-527)
chain: VKCGFPLKTLHAGITSRDRSLRHCIKCKKEDGDGDVSEGSKKSEEGFEYVTVERHPYHSYMDSTSGKLEPASGARASIPGEDYWPEGTSSRVRAARAPQPAGESSSFPSYGKNPGSRRKKNRKATEENVTVETNDEVSDSEDSSEEEENDSSDGFVTYKNEFEREEEETGFELDKKLGRPHPFIDPTKKKQIEKTLTSDESWWNWRKPEKEQWSRWQRRRPDVETVFLKAMAETGQVKLYGEEPTLTETSLYRARRHLFKEERLQAERERLAKEGPMAFYSEWVKAWKRDTSREAVQKHFEETGEDENTQLIEMFSHQTDREYRIMMGTDIRIKRDPLAMRMREDQIKQIWGGDPVYPTINYIQDPNAVMDFRGPDFHEPTPNMLSYLKENGKVISREMHEALLTKEKTEQLEVPDMDDAMAQAVDIGENDDDEDDADVEKDDEKVPRNWSVLKETPELRTAKPKPKKEGRMSLDEAVDDAENLTDFLMDFEEETDP
Take B6: the binding result in experiment [5] is reported as “binds”.
